# The other results are listed elsewhere or left out.
# B1: Threefoil (Haloarcula marismortui) (protein)
# chain: GSSHHHHHHHHHHSSGLVPRGSHMGDGYYKLVARHSGKALDVENASTSDGANVIQYSYSGGDNQQWRLVDLGDGYYKLVARHSGKALDVENASTSDGANVIQYSYSGGDNQQWRLVDLGDGYYKLVARHSGKALDVENASTSDGANVIQYSYSGGDNQQWRLVDL
# Columns and labels:
# Test in all cases: glycan array binding signal (z-score within array); higher = stronger binding
# Details in all cases: glycan notation: IUPAC condensed, linker removed
# [1] = target: Neu5Gc(a2-8)Neu5Gc(a2-3)Gal(b1-4)GlcNAc(b1-3)Gal(b1-4)GlcNAc
# In short: (§1)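 Negative Z-scores can be read as non-binding. The Z-score is calculated within each array and then averaged across arrays of one protein sequence at different concentrations or buffers and across linkers. Arrays, 3228 in all, were curated from the Consortium for Functional Glycomics database and kept only where the protein sequence was available.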
# [2] = target: Neu5Gc(a2-8)Neu5Gc(a2-6)Gal(b1-4)GlcNAc
# In short: as §1
# [3] = target: Neu5Gc(b2-6)Gal(b1-4)GlcNAc
# In short: as §1
binder,measurement,setting,value
B1,glycan array binding signal (z-score),[1],-0.184
same,glycan array binding signal (z-score),[2],-0.415
same,glycan array binding signal (z-score),[3],-0.237

# Reference: the supplement of paper PMC8728848
